Hit rate of the full screen: of about 310,000 compounds, about 2,200 (0.71%) showed an effect of 50% or more. Effects have a minus sign here. The list shows a part of the results.

Sequence of human ether-à-go-go-related gene (hERG) potassium channel (Q12809 whole entry, looked up): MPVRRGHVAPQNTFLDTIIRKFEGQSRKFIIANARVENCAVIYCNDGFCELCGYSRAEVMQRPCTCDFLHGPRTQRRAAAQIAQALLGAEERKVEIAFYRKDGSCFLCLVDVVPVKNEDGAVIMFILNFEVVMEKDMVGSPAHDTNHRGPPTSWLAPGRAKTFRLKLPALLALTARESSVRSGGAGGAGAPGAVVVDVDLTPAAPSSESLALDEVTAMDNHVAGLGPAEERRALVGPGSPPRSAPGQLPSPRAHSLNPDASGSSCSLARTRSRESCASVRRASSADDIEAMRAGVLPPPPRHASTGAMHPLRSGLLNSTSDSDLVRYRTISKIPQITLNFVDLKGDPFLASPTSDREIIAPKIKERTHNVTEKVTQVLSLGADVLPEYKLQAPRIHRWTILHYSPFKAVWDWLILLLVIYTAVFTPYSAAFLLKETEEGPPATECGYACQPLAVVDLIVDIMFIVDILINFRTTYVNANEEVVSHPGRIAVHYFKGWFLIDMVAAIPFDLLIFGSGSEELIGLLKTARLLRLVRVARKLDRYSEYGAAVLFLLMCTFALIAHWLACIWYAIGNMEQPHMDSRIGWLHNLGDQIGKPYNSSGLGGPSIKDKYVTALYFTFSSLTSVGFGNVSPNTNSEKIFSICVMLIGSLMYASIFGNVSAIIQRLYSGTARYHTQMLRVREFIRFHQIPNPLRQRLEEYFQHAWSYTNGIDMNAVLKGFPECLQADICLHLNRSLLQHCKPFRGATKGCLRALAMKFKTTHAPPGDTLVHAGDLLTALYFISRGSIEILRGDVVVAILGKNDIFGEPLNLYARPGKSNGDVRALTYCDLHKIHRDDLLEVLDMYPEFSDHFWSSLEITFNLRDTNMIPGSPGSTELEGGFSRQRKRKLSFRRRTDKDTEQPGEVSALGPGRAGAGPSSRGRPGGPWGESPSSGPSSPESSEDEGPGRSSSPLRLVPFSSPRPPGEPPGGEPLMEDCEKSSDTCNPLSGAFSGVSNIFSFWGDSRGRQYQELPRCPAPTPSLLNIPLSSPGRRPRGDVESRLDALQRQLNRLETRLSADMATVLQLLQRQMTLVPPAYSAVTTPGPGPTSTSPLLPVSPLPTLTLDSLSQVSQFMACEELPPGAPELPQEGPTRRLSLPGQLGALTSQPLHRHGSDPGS

The experiment addresses human ether-à-go-go-related gene (hERG) potassium channel (human, UniProt Q12809). The experiment can be described thus: primary screen, population patch clamp on CHO cells stably expressing hERG.
For the molecule `CC1CC(C)CN(CCCNC(=O)c2nn(C)c3c2CS(=O)(=O)c2ccccc2-3)C1` (stereo not drawn), the “hERG current change (%, negative = inhibition) at 1uM” value is on record as -26.2%.

`C/C(=N\NC(=O)Cc1ccccc1)c1cccnc1`: the “hERG current change (%, negative = inhibition) at 1uM” value is listed as 12.7%.

`O=C1CCc2cc(S(=O)(=O)NCCC(=O)NC3CCN(Cc4ccccc4)CC3)ccc2N1`: the “hERG current change (%, negative = inhibition) at 1uM” value worked out at 3.12%.

For the molecule `Cc1sc(NC(=O)c2ccc3ncsc3c2)c(C(N)=O)c1C`, the “hERG current change (%, negative = inhibition) at 1uM” value turned out to be 12%.

For `C/C(CC(=O)Nc1ccccc1Br)=N\NC(=O)C(=O)N1CCCC1`, the “hERG current change (%, negative = inhibition) at 1uM” value is 11.1%.

`CCN(CC)CCCNC(=O)C1CCCN(c2nnc(N3CCCC3=O)s2)C1` (stereo not drawn): the “hERG current change (%, negative = inhibition) at 1uM” value stood at 1.83%.

`COc1ccc(C(=O)C2CCCN(C3Cc4ccccc4C3)C2)c(OC)c1` (stereo not drawn): the “hERG current change (%, negative = inhibition) at 1uM” value is -68.2%.

As for `COc1ccc(NC(=S)N2CCN(c3ncccn3)CC2)c(OC)c1`, the “hERG current change (%, negative = inhibition) at 1uM” value stood at 14.6%.

As to `Cc1cc(NC(=O)CSc2ccc3nnc(-c4ccccc4)n3n2)no1`, the “hERG current change (%, negative = inhibition) at 1uM” value is given as 1.79%.

Regarding `CCN(CC)c1ccc(NC(=O)c2ccc3c(c2)OCO3)cc1`, the “hERG current change (%, negative = inhibition) at 1uM” value stood at 11.2%.

In the case of `CCOc1ccc(S(=O)(=O)N2CCN(C(=S)NCc3ccccc3)CC2)cc1`, the “hERG current change (%, negative = inhibition) at 1uM” value was -5.62%.

`OC1(c2ccc(Br)cc2)CN(c2ccccc2)C2=[N+]1CCS2.[Br-]` (stereo not drawn): the “hERG current change (%, negative = inhibition) at 1uM” value is listed as 4.59%.

On to `CCOC(=O)c1cnc(=O)[nH]c1C.Cl`, for which the “hERG current change (%, negative = inhibition) at 1uM” value was -4.65%.

Turning to `COc1ccc(N2C(=O)CSC23C(=O)Nc2ccccc23)cc1OC` (stereo not drawn), the “hERG current change (%, negative = inhibition) at 1uM” value is 9.91%.

Take `CCOC(=O)C(Cc1ccc(OC)c([N+](=O)[O-])c1)NC(=O)CCC(=O)Nc1ccc(OC)cc1` (stereo not drawn): the “hERG current change (%, negative = inhibition) at 1uM” value came out at 1.57%.

On to `COCCCNC(=O)Cn1cnc2sc(C)c(S(=O)(=O)N3CC(C)CC(C)C3)c2c1=O` (stereo not drawn), for which the “hERG current change (%, negative = inhibition) at 1uM” value is recorded as 7.02%.

As for `NC(=S)N=Nc1c(O)n(Cc2ccccc2)c2ccccc12`, the “hERG current change (%, negative = inhibition) at 1uM” value was 11.3%.

`CCOC(=O)N1CCN(S(=O)(=O)CCNC(=O)c2cccc(OC)c2)CC1`: the “hERG current change (%, negative = inhibition) at 1uM” value came out at 11.1%.

In the case of `CC(=O)Nc1ccc2nc3ccccc3nc2c1`, the “hERG current change (%, negative = inhibition) at 1uM” value is recorded as 7.61%.

`Cc1ccc(S(=O)(=O)Nc2cccc(-n3cnnn3)c2)cc1C`: the “hERG current change (%, negative = inhibition) at 1uM” value amounted to 15.2%.

For `CCOC(=O)C1CCN(c2cc(C)nc3cc(-c4cccc(F)c4)nn23)CC1`, the “hERG current change (%, negative = inhibition) at 1uM” value is recorded as -1.27%.

Regarding `O=C(NCc1ccccc1)c1ncn(Cc2ccccc2)c1C(=O)NCc1ccccc1`, the “hERG current change (%, negative = inhibition) at 1uM” value is 13.3%.

Take `Cc1cccc(OCC(=O)N/N=C/c2ccc3c(c2)OCO3)c1`: the “hERG current change (%, negative = inhibition) at 1uM” value is on record as 16.6%.

Take `O=C(O)/C=C/C(=O)NCc1ccccc1`: the “hERG current change (%, negative = inhibition) at 1uM” value is recorded as 11.4%.

Take `Cc1ccc(C(c2nnnn2CCC(C)C)N2CCN(C)CC2)cc1.Cl` (stereo not drawn): the “hERG current change (%, negative = inhibition) at 1uM” value is 4.31%.

Consider `COc1ccccc1NC(=O)CN1C(=O)NC2(CCCCCCC2)C1=O`, for which the “hERG current change (%, negative = inhibition) at 1uM” value stood at 9.59%.

As for `Cn1c(O)c(C(=NCCc2c[nH]c3ccccc23)c2ccccc2)c(=O)n(C)c1=O`, the “hERG current change (%, negative = inhibition) at 1uM” value is 7.13%.

Consider `Cc1ccc(C(=O)NC(C)c2ccc(S(N)(=O)=O)cc2)s1` (stereo not drawn), for which the “hERG current change (%, negative = inhibition) at 1uM” value is 13.7%.

With `Cc1ccc(C)c(NC(=S)NCCc2c[nH]c3ccccc23)c1`, the “hERG current change (%, negative = inhibition) at 1uM” value is given as 9.77%.

Turning to `O=[N+]([O-])c1cc(/C=N/O)ccc1Oc1ccccc1Cl`, the “hERG current change (%, negative = inhibition) at 1uM” value is listed as 10.1%.

With `COc1ccccc1N(CC(=O)NCc1ccccc1)C(=O)CCC(=O)Nc1cc(C)ccn1`, the “hERG current change (%, negative = inhibition) at 1uM” value worked out at 9.95%.

Consider `N#Cc1cnc(NOCc2ccc(Cl)cc2)nc1`, for which the “hERG current change (%, negative = inhibition) at 1uM” value is 6.32%.

On to `CC(=O)c1ccc(NC(=O)COC(=O)c2ccccc2Nc2ccccc2)cc1`, for which the “hERG current change (%, negative = inhibition) at 1uM” value turned out to be 11.3%.

Consider `O=C1CCCN=C(Nc2ccc(F)c(Cl)c2)S1`, for which the “hERG current change (%, negative = inhibition) at 1uM” value is listed as 0.757%.

For `O=C(CN1CCN(C(=O)c2ccco2)CC1)Nc1cccc(S(=O)(=O)N2CCCC2)c1`, the “hERG current change (%, negative = inhibition) at 1uM” value is 5.73%.

Regarding `Cc1cccc2sc(NC(=O)C3CCCO3)nc12` (stereo not drawn), the “hERG current change (%, negative = inhibition) at 1uM” value was found to be 11.9%.

In the case of `CCn1c(CNc2ccc(C)cc2)nnc1SCC(=O)NCc1ccccc1`, the “hERG current change (%, negative = inhibition) at 1uM” value was -2.06%.

Consider `CCCN1CCC(=O)N(CCOc2ccccc2)CC1`, for which the “hERG current change (%, negative = inhibition) at 1uM” value is reported as 5.47%.

For `CCC(=O)c1ccc(OCC(=O)N2CCN(C(=O)c3ccccc3)CC2)cc1`, the “hERG current change (%, negative = inhibition) at 1uM” value came to 11.3%.

`CCOC(=O)CSc1ccc(C(=O)N2CCC3(CC2)OCCO3)cc1[N+](=O)[O-]`: the “hERG current change (%, negative = inhibition) at 1uM” value is on record as 27%.

Consider `O=C(Nc1ccccc1C(=O)NCc1ccccc1)C1=CSCCO1`, for which the “hERG current change (%, negative = inhibition) at 1uM” value was 11.5%.

Turning to `Cc1cc(S(=O)(=O)NC2CCCCC2)ccc1OCC(=O)NCc1cccnc1`, the “hERG current change (%, negative = inhibition) at 1uM” value is -0.59%.

As to `Cc1cc(NC(=O)CN2C(=O)NC3(CCC(C)CC3)C2=O)no1` (stereo not drawn), the “hERG current change (%, negative = inhibition) at 1uM” value worked out at 24.7%.

For the molecule `Cc1ccc(NC(=O)CSc2n[nH]c(C)c2[N+](=O)[O-])cc1C`, the “hERG current change (%, negative = inhibition) at 1uM” value is given as 11%.

Consider `Cc1ccc(NC2CCCN(C(=O)c3ccccc3N3CCOCC3)C2)cc1C` (stereo not drawn), for which the “hERG current change (%, negative = inhibition) at 1uM” value is 2.04%.

As to `Cn1c(CN2CCCCC2)nc2cc(NC(=O)c3ccc(Cl)cc3)ccc21`, the “hERG current change (%, negative = inhibition) at 1uM” value is given as -27.6%.

On to `CCn1c(CC(=O)Nc2ccc(OC)cc2)nnc1SCC(=O)N1CCOCC1`, for which the “hERG current change (%, negative = inhibition) at 1uM” value was determined as 9.01%.

In the case of `Cc1ccc(C(=O)OCC(=O)N2C(C)CCCC2C)cc1S(=O)(=O)N1CCCCC1` (stereo not drawn), the “hERG current change (%, negative = inhibition) at 1uM” value was -7.96%.

Consider `Nc1ccc(C23CC4CC(CC(CO)(C4)C2)C3)cc1`, for which the “hERG current change (%, negative = inhibition) at 1uM” value is recorded as 13.8%.

Turning to `CC(=O)Nc1nc2cc(N)ccc2s1`, the “hERG current change (%, negative = inhibition) at 1uM” value is 6.49%.

Take `COc1cc2c(cc1OC)CN(C(=O)c1nn(Cc3ccccc3)c(=O)c3ccccc13)CC2`: the “hERG current change (%, negative = inhibition) at 1uM” value was found to be 11.3%.

Take `COC(=O)C1=C(C)NC(C)=C(C(=O)OC)C1C(=O)OCCN1C(=O)c2ccccc2C1=O`: the “hERG current change (%, negative = inhibition) at 1uM” value is listed as 5.48%.

Turning to `CCCCN1C[C@H](Cc2ccccc2)[C@@H](CC(=O)Nc2ccccc2)C1=O`, the “hERG current change (%, negative = inhibition) at 1uM” value is given as 9.55%.

For `Cc1ccc(N2Cc3ccccc3C2=O)cc1`, the “hERG current change (%, negative = inhibition) at 1uM” value is 13.1%.

On to `O=S(=O)(Cc1cnc(Cl)s1)c1ccccc1`, for which the “hERG current change (%, negative = inhibition) at 1uM” value is 13.2%.

`CCOc1ccc(C(=O)NNC(=O)C2CC(=O)N(c3ccc(C)cc3)C2)cc1` (stereo not drawn): the “hERG current change (%, negative = inhibition) at 1uM” value is reported as 10.7%.

Turning to `COc1ccc(N2Cc3cccc(C(=O)N4CCOCC4)c3C2=O)cc1`, the “hERG current change (%, negative = inhibition) at 1uM” value worked out at 9.77%.

The values above are taken from paper PMC4336329 (PLoS ONE, 2015).
